Read counts are not given, so values of variants with three or more changes are uncertain.
B1: CPEB3 Ribozyme (parent)
chain: UAACAGGGGGCCACAGCAGAAGCGUUCACGUCGCAGCCCCUGUCAGAUUCUGGUGAAUCUGCGAAUUCUGCUGUAUAUCUC

Variants of: B1
Experiment: self-cleavage, relative activity (ratio to wild type); higher = more cleavage; in vitro, sequencing
How it was run: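 CPEB3 self-cleaving ribozyme mutant libraries were made by rounds of error-prone PCR, barcoded, and transcribed in vitro with T7 RNA polymerase for 5 hours at 37°C. Cleavage occurred during transcription and a 15 min DNase I step before EDTA stop. RNAs were reverse transcribed with template switching and Illumina-sequenced, with DNA sequencing mapping barcodes to variants. Relative activity is the variant's cleaved/total read fraction divided by wild type's (minimum 5 reads), averaged across three batches.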

| Variant | self-cleavage |
| --- | --- |
| G55U U67C U72A | 0.2 |
| A56C U72C C81U | 0.29 |
| A56C U74A A75G | 0.9 |
| A56G A57G C62U A64U | 0.16 |
| A56G A57G U69C U74C U78A | 0.13 |
| A56G A57G U72A | 0.24 |
| A56G A57G U74A | 0.26 |
| A56G A64C A65G U69A | 0.14 |
| A56G A64U U69A | 0.27 |
| A56G A64U U69C | 0.36 |
| A56G A64U U78C | 0.49 |
| A56G A65G U74C | 0.44 |
| A56G A75G A77U | 0.57 |
| A56G G63A A64C U76A | 0.17 |
| A56G G70C U72C | 0.29 |
| A56G U58A U69C | 0.47 |
| A56G U58C U69G | 0.14 |
| A56G U58C U76A | 0.33 |
| A56G U60A A64G | 0.25 |
| A56G U60A A64U U80C | 0.14 |
| A56G U60C C79A | 0.46 |
| A56G U67A U80C | 0.62 |
| A56G U69A G73U | 0.93 |
| A56G U72C U74C | 1.24 |

| Variant | self-cleavage |
| --- | --- |
| A56G U74A U76C | 1.22 |
| A56G U76C U80C | 0.93 |
| A56U A57G A64G U80A | 0.45 |
| A56U A57G C71U | 0.37 |
| A56U A64G U78C | 0.39 |
| A56U A65G U72C | 0.21 |
| A56U U58C U80C | 0.21 |
| A56U U60A U67C U76C U78C | 0.14 |
| A56U U67A U72A U80C | 0.29 |
| A56U U72A U78C U80C | 0.5 |
| A57C U66C U72A U76C | 0.1 |
| A57G A64G A77U | 0.98 |
| A57G A64G U72C A77U | 0.86 |
| A57G A64U U67C | 0.41 |
| A57G A65G C71G U80C | 0.37 |
| A57G A75G U80C | 0.45 |
| A57G A77U U80C | 0.98 |
| A57G C62A U80C | 0.36 |
| A57G C71G U80A | 0.16 |
| A57G G61U A65U | 0.14 |
| A57G U58A C59A A77G | 0.17 |
| A57G U58C U78C | 0.23 |
| A57G U60A A65G | 0.25 |
| A57G U60A A65G U69A U80C | 0.43 |

| Variant | self-cleavage |
| --- | --- |
| A57G U66A U80A | 0.29 |
| A57G U67A U72A | 0.38 |
| A57G U67C U76A | 0.21 |
| A57G U69C U72A | 0.44 |
| A57G U72A U78C | 0.39 |
| A57G U72C C79A | 1.13 |
| A57U G61C U67C A77G | 0.12 |
| U58A C62U U72C | 0.24 |
| U58A U67A U80A | 0.5 |
| U58A U67C A75G | 0.22 |
| U58A U69G G73A | 0.39 |
| U58A U72C G73C | 0.4 |
| U58A U72C U78C | 0.45 |
| U58C A64G A65G U69C | 0.2 |
| U58C A64U U69A U78C | 0.13 |
| U58C A65G U78A | 0.16 |
| U58C C62U A65U U78C | 0.13 |
| U58C U60A U72C | 0.39 |
| U58C U60A U74C | 0.29 |
| U58C U60G U80A | 0.17 |
| U58C U66A U67A | 0.2 |
| U58C U66C A77G | 0.14 |
| U58C U66C U72C | 0.22 |
| U58C U69C U74A | 0.16 |

| Variant | self-cleavage |
| --- | --- |
| U58C U72C U76A | 0.79 |
| U58C U72G U80C | 1.09 |
| U58G A64G U74C | 0.3 |
| U58G U60A U72G G73A | 0.21 |
| U58G U67C U72A | 0.15 |
| C59A A77U U80C | 0.32 |
| C59A U60A A75U | 0.33 |
| C59U U60C C62U U80C | 0.11 |
| U60A A64G A75G | 0.26 |
| U60A A65G U78C | 0.24 |
| U60A U66C A75G U80A | 0.15 |
| U60A U66C U74C A75G U76A | 0.22 |
| U60A U67A A77G | 0.32 |
| U60A U67A U78C | 0.31 |
| U60A U72A U80C | 0.96 |
| U60A U72C G73A | 1.07 |
| U60A U72C U76A | 0.5 |
| U60C A64G U66G | 0.14 |
| U60C A64U U67A | 0.2 |
| U60C A64U U72C | 0.3 |
| U60C A65C U78A | 0.38 |
| U60C A65G U66C | 0.14 |
| U60C C68A A75U | 0.19 |
| U60C U66A A75G | 0.17 |

| Variant | self-cleavage |
| --- | --- |
| U60C U67A U72A | 0.3 |
| U60C U67C C79A | 0.33 |
| U60C U67C U69C | 0.34 |
| U60C U72C U80C | 0.83 |
| U60C U74A A77C | 0.79 |
| U60C U78C U80C | 0.44 |
| U60G U69C U80C | 0.29 |
| G61A A65G U72C | 0.37 |
| G61U U66C U69C | 0.25 |
| C62G U72C U78G | 0.19 |
| C62U A64G A77G U80A | 0.15 |
| C62U A64G U78A | 0.11 |
| C62U U69C A77C | 0.16 |
| G63A A64G C79A | 0.6 |
| G63A A65G A77U U80C | 0.4 |
| G63C U72A U80C | 1.24 |
| G63U A65G U78C | 0.37 |
| A64C A65G U72A | 0.23 |
| A64G A65G U66C U76C | 0.24 |
| A64G A65G U66C U80C | 0.15 |
| A64G A75U U80C | 1.05 |
| A64G U66C C81A | 0.17 |
| A64G U67A U72G | 0.24 |
| A64G U67C U78A U80C | 0.21 |

| Variant | self-cleavage |
| --- | --- |
| A64G U69A C81A | 0.54 |
| A64G U69C U78C | 0.49 |
| A64G U72C U80A | 1.05 |
| A64U A65U U72C | 0.59 |
| A64U A75G U80G | 0.32 |
| A64U U72G U76C A77U | 0.29 |
| A65G A77G C79G | 0.68 |
| A65G U66C A75U U78C | 0.17 |
| A65G U69A U72A | 0.24 |
| A65G U69C U72A U80A | 0.11 |
| A65G U69C U72C | 0.3 |
| A65G U69C U80A | 0.38 |
| A65G U72A U78C | 0.18 |
| A65U A77G U78C | 0.14 |
| A65U C68A U69C | 0.25 |
| A65U C71U U78C C79A | 0.22 |
| U66A A75U A77G | 0.3 |
| U66A U67C C71G U78C | 0.27 |
| U66A U69C G70A | 0.2 |
| U66C A77U U78A | 0.35 |
| U66C U69A A75U U78C | 0.3 |
| U66C U69A U74C | 0.27 |
| U66C U69A U80C | 0.19 |
| U66G U74A U78A | 0.61 |

| Variant | self-cleavage |
| --- | --- |
| U67A U69C U80C | 0.28 |
| U67A U72C C81A | 0.85 |
| U67C A75U U80C | 0.34 |
| U67C C71U U78C | 0.43 |
| U67C C79U U80A | 0.29 |
| U67C G70C A75C | 0.16 |
| U67C U74G A75G | 0.19 |
| U67C U78C U80C | 0.25 |
| U69A A75G U80A | 0.35 |
| U69A A77G U80A | 0.88 |
| U69A U74G U78A | 0.58 |
| U69A U76C A77G | 0.73 |
| U69C U72C A77G | 0.21 |
| U69C U74C A75G | 0.13 |
| U69C U76C C79G | 0.92 |
| U69G A75G U76C | 0.46 |
| U69G A77U C81U | 0.65 |
| G70U U76C A77C | 0.38 |
| C71U U72C U80C | 1.14 |
| C71U U74C U78C | 0.97 |
| U72A U76C U80C | 1.21 |
| U72C A75U U80A | 1.29 |
| U74C A75G U78C C81U | 1.35 |
